The target in assay [1] is T1, CD82 (Tspan-27) (human (endogenous in A2780, OVCAR-3, SKOV-3 and A2780cis cells)) (UniProt P27701).
T1 sequence: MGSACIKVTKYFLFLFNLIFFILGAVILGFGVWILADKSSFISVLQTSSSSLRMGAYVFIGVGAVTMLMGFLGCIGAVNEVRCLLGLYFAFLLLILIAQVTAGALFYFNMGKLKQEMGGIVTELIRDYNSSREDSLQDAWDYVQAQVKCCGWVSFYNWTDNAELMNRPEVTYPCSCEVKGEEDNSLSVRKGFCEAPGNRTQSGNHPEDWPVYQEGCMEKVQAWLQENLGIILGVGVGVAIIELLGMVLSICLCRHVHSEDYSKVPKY
Nature of the assay: cross-linking + co-IP; OVCAR-3 cells treated with DSP or DTSSP (1 mM, 30 min, 37 °C), with or without 2-BP beforehand, lysed in RIPA buffer; anti-CD82 or anti-claudin-7 precipitates.

Sequences of proteins named here, by UniProt entry; tags and fusion partners are left off.
UniProt O95832: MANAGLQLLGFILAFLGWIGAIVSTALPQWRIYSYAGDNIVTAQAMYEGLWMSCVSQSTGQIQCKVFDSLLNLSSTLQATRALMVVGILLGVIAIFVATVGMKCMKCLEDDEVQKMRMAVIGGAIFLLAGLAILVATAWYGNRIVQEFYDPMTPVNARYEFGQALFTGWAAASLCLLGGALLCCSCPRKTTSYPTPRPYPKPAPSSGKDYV
UniProt O14493: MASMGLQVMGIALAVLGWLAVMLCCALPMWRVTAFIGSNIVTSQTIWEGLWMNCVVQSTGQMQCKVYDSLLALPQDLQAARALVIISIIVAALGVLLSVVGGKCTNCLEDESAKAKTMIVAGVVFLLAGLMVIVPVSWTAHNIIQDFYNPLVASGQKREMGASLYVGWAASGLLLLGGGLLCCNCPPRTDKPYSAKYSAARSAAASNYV

The target of assay [2] is T1, CD82 (Tspan-27) (human (endogenous in A2780, OVCAR-3, SKOV-3 and A2780cis cells)). Nature of the assay: cross-linking + co-IP; SKOV-3 cells treated with DSP or DTSSP (1 mM, 30 min, 37 °C), claudin-7 precipitates also after 2-BP beforehand, lysed in RIPA buffer; anti-CD82 or anti-claudin-7 precipitates.
The target in assay [3] is T2, Epithelial cell adhesion molecule (EpCAM) (human (endogenous in A2780, OVCAR-3, SKOV-3 and A2780cis cells)) (UniProt P16422).
T2 sequence: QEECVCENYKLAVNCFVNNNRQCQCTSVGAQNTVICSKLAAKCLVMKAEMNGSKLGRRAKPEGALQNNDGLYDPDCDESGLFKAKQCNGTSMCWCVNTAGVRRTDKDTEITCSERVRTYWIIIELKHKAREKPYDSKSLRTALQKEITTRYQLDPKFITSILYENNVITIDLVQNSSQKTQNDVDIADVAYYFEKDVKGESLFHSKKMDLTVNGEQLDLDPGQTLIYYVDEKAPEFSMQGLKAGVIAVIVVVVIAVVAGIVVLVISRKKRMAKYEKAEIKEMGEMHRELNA
Briefly: co-IP; tumours of SKOV-3 xenograft nude mice, homogenised in 50 mM Tris-HCl pH 8.0, 150 mM NaCl, 1% Triton X-100; immunoprecipitation and western blot.

For assay [4], the target named is T1, CD82 (Tspan-27) (human (endogenous in A2780, OVCAR-3, SKOV-3 and A2780cis cells)). The assay is described as above.
The target is the same in assay [5]. Nature of the assay: cross-linking + co-IP; A2780 cells treated first with 2-BP and then with DSP or DTSSP; anti-CD82 or anti-claudin-7 precipitates.
Assay [6] has the same target. Nature of the assay: co-IP; A2780cis (cisplatin-resistant) cells lysed in 1% Triton X-100 buffer; lysates precipitated with antibodies to the studied molecules, western blot. (Immunoblotting shows a protein as a band on a membrane.)
The target of assay [7] is T3, claudin-7 (human (endogenous in A2780, OVCAR-3, SKOV-3 and A2780cis cells)) (UniProt O95471).
T3 sequence: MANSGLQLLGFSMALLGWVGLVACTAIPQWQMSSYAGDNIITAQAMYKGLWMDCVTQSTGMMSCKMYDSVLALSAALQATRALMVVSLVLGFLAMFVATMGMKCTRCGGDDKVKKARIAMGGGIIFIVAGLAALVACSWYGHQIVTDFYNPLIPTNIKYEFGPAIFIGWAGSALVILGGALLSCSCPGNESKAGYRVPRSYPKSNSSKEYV
Briefly: co-IP; A2780 cells lysed in 1% Triton X-100 buffer; lysates precipitated with antibodies to the studied molecules, western blot.

In assay [8] the target is T1, CD82 (Tspan-27) (human (endogenous in A2780, OVCAR-3, SKOV-3 and A2780cis cells)). The assay is described as above.
Assay [9] shares this target. Briefly: co-IP; OVCAR-3 cells lysed in 1% Triton X-100 buffer; lysates precipitated with antibodies to the studied molecules, western blot.
Assay [10] addresses claudin-1 (human (endogenous in A2780, OVCAR-3 and SKOV-3 cells)) (UniProt O95832). Described as above.
The target in assay [11] is T3, claudin-7 (human (endogenous in A2780, OVCAR-3, SKOV-3 and A2780cis cells)). Briefly: condition: only cells treated with 50 μM 2-BP (palmitoylation inhibitor); co-IP; OVCAR-3 cells treated with the palmitoylation inhibitor 2-BP (50 μM, 20 h, 37 °C), RIPA buffer; anti-CD82 or anti-claudin-7 precipitates.
For assay [12] the target is unchanged. Briefly: condition: only cells treated with 50 μM 2-BP (palmitoylation inhibitor); co-IP; SKOV-3 cells treated with the palmitoylation inhibitor 2-BP (50 μM, 20 h, 37 °C), RIPA buffer; anti-CD82 or anti-claudin-7 precipitates.
The target is the same in assay [13]. Briefly: condition: only cells treated with 50 μM 2-BP (palmitoylation inhibitor); co-IP; A2780 cells treated with the palmitoylation inhibitor 2-BP (50 μM, 20 h, 37 °C), RIPA buffer; anti-CD82 or anti-claudin-7 precipitates.
The target of assay [14] is T1, CD82 (Tspan-27) (human (endogenous in A2780, OVCAR-3, SKOV-3 and A2780cis cells)). Briefly: co-IP; SKOV-3 cells lysed in 1% Triton X-100 buffer; lysates precipitated with antibodies to the studied molecules, western blot.
Assay [15] concerns the target claudin-1 (human (endogenous in A2780, OVCAR-3 and SKOV-3 cells)) (UniProt O95832). Described as above.

No constants are given. Whether binding was seen depends on the method and setting. Binding seen in cells or lysates may run through a third protein. Some binding calls cover weakened binding; strength is not graded here.

claudin-4 (from UniProt O14493 1-209): the binding entry in assay [1], in [2], in assay [3], in assay [4], in assay [5] and in [6] was “binds” each time. Also, the binding result in [7] is on record as “binds weakly”; in [8], “binds”; in assay [9], “binds”; in [10], “binds”; in assay [11], “no binding”; in assay [12], “no binding”. Besides, the results for the binding result in assay [13], in assay [14] and in assay [15] were “no binding”, “binds” and “binds”, respectively.

B1: Epithelial cell adhesion molecule (EpCAM) (protein, UniProt P16422 24-314)
chain: QEECVCENYKLAVNCFVNNNRQCQCTSVGAQNTVICSKLAAKCLVMKAEMNGSKLGRRAKPEGALQNNDGLYDPDCDESGLFKAKQCNGTSMCWCVNTAGVRRTDKDTEITCSERVRTYWIIIELKHKAREKPYDSKSLRTALQKEITTRYQLDPKFITSILYENNVITIDLVQNSSQKTQNDVDIADVAYYFEKDVKGESLFHSKKMDLTVNGEQLDLDPGQTLIYYVDEKAPEFSMQGLKAGVIAVIVVVVIAVVAGIVVLVISRKKRMAKYEKAEIKEMGEMHRELNA
With B1, the binding entry in assay [1] is given as “binds”; in assay [2], “binds”; in assay [4], “binds”; in [5], “binds”; in assay [6], “binds”; in [7], “binds weakly”. The binding entry is given as “binds” in assay [8]; “binds” in assay [9]; “binds” in [10]; “no binding” in [11]; “no binding” in assay [12]; “no binding” in assay [13]. Besides, the binding entry in assay [14] and in [15] was “binds” throughout.

Values taken from publication PMC7757826.
